Test results published in a compilation of properties of binary mixtures (doi:10.1039/b303735e).
The densities may have been worked out from excess volumes.

Experiment: xn = mol fraction of the nth substance listed
Details: 298.15 K, 101.3 kPa

CCCC[n+]1ccn(C)c1.F[B-](F)(F)F + CC#N
Details	mass density [kg/m3]
x2 = 0	1211
x2 = 0.0982	1198.3
x2 = 0.2265	1178.9
x2 = 0.3047	1164.3
x2 = 0.4554	1132.5
x2 = 0.5059	1119.3
x2 = 0.5469	1107.3
x2 = 0.6005	1090.1
x2 = 0.6441	1074.4
x2 = 0.6973	1052.2
x2 = 0.9513	851.6

CCCC[n+]1ccn(C)c1.F[B-](F)(F)F + CCC(C)=O
Details	mass density [kg/m3]
x2 = 0	1211

CC#N + CCCC[n+]1ccn(C)c1.F[B-](F)(F)F
Details	mass density [kg/m3]
x1 = 1	776.7

CCC(C)=O + CCCC[n+]1ccn(C)c1.F[B-](F)(F)F
Details	mass density [kg/m3]
x1 = 0.2004	1168.5
x1 = 0.3969	1118.2
x1 = 0.4495	1102.8
x1 = 0.5	1086.8
x1 = 0.5521	1068.8
x1 = 0.6062	1048.1
x1 = 0.6545	1027.8
x1 = 0.8137	945.1
x1 = 0.8974	888.6
x1 = 0.9502	846.5
x1 = 1	799.9

ClCCl + CCCC[n+]1ccn(C)c1.F[B-](F)(F)F
Details	mass density [kg/m3]
x1 = 0.199	1221.3
x1 = 0.2854	1226.6
x1 = 0.3985	1235.5
x1 = 0.5452	1251
x1 = 0.5958	1258.2
x1 = 0.6471	1265.2
x1 = 0.8019	1288.3
x1 = 0.9015	1303.9
x1 = 0.9477	1309.1
x1 = 1	1318.2

CCCC[n+]1ccn(C)c1.F[B-](F)(F)F + CN(C)C=O
Details	mass density [kg/m3]
x2 = 0	1211
x2 = 0.2041	1187.7
x2 = 0.3024	1174.6
x2 = 0.4061	1158.1
x2 = 0.4408	1151.9
x2 = 0.5052	1139.6
x2 = 0.5459	1130.7
x2 = 0.6014	1117.6
x2 = 0.665	1100.7
x2 = 0.701	1090
x2 = 0.8008	1055
x2 = 0.9005	1009.2
x2 = 0.947	982.4
